The list shows a part of the results. The main result of the screen is listed elsewhere. These columns were measured beside it and carry no call.

The test deals with GTPase KRas (Homo sapiens) (UniProt P01116). Description: Covalent labelling of cysteine mutants by fragments, read by mass spectrometry (AID 2202238). More on the design: protein at 5 µM with 500 µM competing thiol for 1.5 h. Conditions: KRAS G12D cysteine mutants, disulfide tethering, MALDI-TOF labeling, stronger effect = higher value, fragment at 500 µM.
Setting [1] is: measured here: G75C mutant labeling.
Setting [2] is: measured here: H94C mutant labeling.
Where [3] appears, read: measured here: I36C mutant labeling.
The mark [4] stands for this setting: measured here: L120C mutant labeling.
Setting [5] is: measured here: M67C mutant labeling.
Setting [6] is: measured here: M72C mutant labeling.
[7] abbreviates: measured here: N86C mutant labeling.
[8] abbreviates: measured here: P121C mutant labeling.
The mark [9] stands for this setting: measured here: S122C mutant labeling.
Setting [10] is: measured here: S136C mutant labeling.
The mark [11] stands for this setting: measured here: G60C mutant labeling.
Setting [12] is: measured here: N26C mutant labeling.

Chain of UniProt P01116 (P01116 whole entry, looked up, the tested form may be a part): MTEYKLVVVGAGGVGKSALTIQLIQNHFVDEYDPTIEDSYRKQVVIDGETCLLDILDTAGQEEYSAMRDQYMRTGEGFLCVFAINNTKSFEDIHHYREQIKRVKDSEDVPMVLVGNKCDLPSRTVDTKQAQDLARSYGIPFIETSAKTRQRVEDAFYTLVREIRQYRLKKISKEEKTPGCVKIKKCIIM

Consider `Cc1ccc(NC(=O)CCS)cc1N1C(=O)CNC1=O`, for which the percent labeling was 11.5% under setting [1]; 31.4% under setting [2]; 36.1% under setting [3]; 44.4% under setting [4]; 30% under setting [5]; 37.7% under setting [6]. Also, the percent labeling by setting is: under setting [7], 35.5%; under setting [8], 32.2%; under setting [9], 35.2%; under setting [10], 52.3%.
Take `O=C(NCCS)C1CCN(C(=O)C2CCCCC2)CC1`: the percent labeling was found to be 26.4% under setting [11]; 13.2% under setting [1]; 33.4% under setting [2]; 24.1% under setting [3]; 31.1% under setting [4]; 29.4% under setting [5]. The percent labeling is, setting by setting: under setting [6], 14.6%; under setting [12], 36.2%; under setting [7], 22.5%; under setting [8], 28.1%; under setting [9], 28.3%; under setting [10], 38.6%.
For the compound `O=C(CCS)N1CCn2c(CC3CC3)nnc2C1`, the percent labeling came to 7.9% under setting [1]; 24% under setting [2]; 33.8% under setting [3]; 20.5% under setting [4]; 27% under setting [5]; 12.7% under setting [6]. The percent labeling under setting [7] is 12.9%, the percent labeling under setting [8] turned out to be 28.7%, the percent labeling under setting [9] was 30.4% and the percent labeling under setting [10] was determined as 44.6%.
`COc1cc[nH]c(=O)c1CNC(=O)CCS`: the percent labeling is, setting by setting: under setting [1], 0%; under setting [2], 28.1%; under setting [3], 37.2%; under setting [4], 28.4%; under setting [5], 27.8%; under setting [6], 13.3%. Further, the percent labeling by setting is: under setting [7], 20.1%; under setting [8], 30.7%; under setting [9], 31.8%; under setting [10], 45%.
As to `Cc1ccn(C2CCN(C(=O)CCS)CC2)n1`, the percent labeling by setting is: under setting [1], 15.1%; under setting [2], 33.1%; under setting [3], 32.1%; under setting [4], 33.8%; under setting [5], 29.9%; under setting [6], 18.9%. Besides, the percent labeling runs as follows: under setting [7], 18.1%; under setting [8], 32.8%; under setting [9], 31.9%; under setting [10], 51.8%.
Turning to `COC(=O)c1sc2c(c1Br)CN(C(=O)CCS)C2`, the percent labeling was 15.4% under setting [1]; 14.5% under setting [2]; 18.2% under setting [3]; 9.2% under setting [4]; 11.3% under setting [5]; 36% under setting [6]. For the same compound, the percent labeling stood at 10.4% under setting [7], 12.1% under setting [8], 0% under setting [9] and 15.2% under setting [10].
Compound `Cc1cccc(Oc2ccc(NC(=O)CCS)c(C)n2)c1C` gave a percent labeling under setting [1] of 11.8%; a percent labeling under setting [2] of 18%; a percent labeling under setting [3] of 20.6%; a percent labeling under setting [4] of 15%; a percent labeling under setting [5] of 42.1%; a percent labeling under setting [6] of 32.7%. Also, the percent labeling runs as follows: under setting [7], 19.2%; under setting [8], 20.8%; under setting [9], 11.2%; under setting [10], 33.3%.
Consider `COc1cccc(-n2cc(NC(=O)CCS)nn2)c1`, for which the percent labeling runs as follows: under setting [1], 3.9%; under setting [2], 17.9%; under setting [3], 13.7%; under setting [4], 13.2%; under setting [5], 10.9%; under setting [6], 57.9%. The percent labeling under setting [7] came out at 3.5%, the percent labeling under setting [8] amounted to 15.4%, the percent labeling under setting [9] came out at 10% and the percent labeling under setting [10] stood at 22.3%.
As to `O=C(Cc1cccc(OCC(F)(F)F)c1)NCCS`, the percent labeling was found to be 31.9% under setting [11]; 15.4% under setting [1]; 26.9% under setting [2]; 15.5% under setting [3]; 26.1% under setting [4]; 18.8% under setting [5]. Besides, the percent labeling was determined as 23.8% under setting [6]; 30.4% under setting [12]; 15.6% under setting [7]; 19% under setting [8]; 17.2% under setting [9]; 24.1% under setting [10].
As for `Cc1cn(CC(=O)NCCS)nc1C(F)(F)F`, the percent labeling is 42% under setting [11]; 16.4% under setting [1]; 29.8% under setting [2]; 28.3% under setting [3]; 44.2% under setting [4]; 26.1% under setting [5]. Moreover, the percent labeling runs as follows: under setting [6], 29.4%; under setting [12], 36.8%; under setting [7], 28%; under setting [8], 29.9%; under setting [9], 29.5%; under setting [10], 40.9%.
For the compound `O=C(NCCS)c1nn2c(c1Br)CCC2`, the percent labeling is, setting by setting: under setting [11], 35%; under setting [1], 27.2%; under setting [2], 34.8%; under setting [3], 23%; under setting [4], 41.2%; under setting [5], 32.9%. For the same compound, the percent labeling runs as follows: under setting [6], 71.2%; under setting [12], 41.7%; under setting [7], 29.5%; under setting [8], 26.2%; under setting [9], 27.6%; under setting [10], 39.5%.
As to `COc1ccccc1OCCC(=O)NCCS`, the percent labeling runs as follows: under setting [11], 56.1%; under setting [1], 17.2%; under setting [2], 33.7%; under setting [3], 27%; under setting [4], 49.8%; under setting [5], 36.8%. Also, the percent labeling was 33% under setting [6]; 43.1% under setting [12]; 25.3% under setting [7]; 35.6% under setting [8]; 35.2% under setting [9]; 49.6% under setting [10].
For `CCc1[nH]cnc1C(=O)NCCS`, the percent labeling under setting [11] is 28.9%; the percent labeling under setting [1] was 24.1%; the percent labeling under setting [2] was 36%; the percent labeling under setting [3] was 23.2%; the percent labeling under setting [4] is 36.8%; the percent labeling under setting [5] is 29.9%. The percent labeling is 31.5% under setting [6]; 33.2% under setting [12]; 30.9% under setting [7]; 27.1% under setting [8]; 29.1% under setting [9]; 36.1% under setting [10].
`Cc1cc(C(=O)NCCS)nc(C(F)(F)F)n1`: the percent labeling turned out to be 34.1% under setting [11]; 19.9% under setting [1]; 30.5% under setting [2]; 20.2% under setting [3]; 33.9% under setting [4]; 26.9% under setting [5]. Moreover, the percent labeling runs as follows: under setting [6], 31%; under setting [12], 34.6%; under setting [7], 16.2%; under setting [8], 26.3%; under setting [9], 25.9%; under setting [10], 45.5%.
With `O=C(NCCS)c1c(F)cccc1-n1cccn1`, the percent labeling runs as follows: under setting [11], 33.6%; under setting [1], 13.7%; under setting [2], 37.7%; under setting [3], 30.2%; under setting [4], 35.1%; under setting [5], 31.1%. Also, the percent labeling worked out at 28% under setting [6]; 32.4% under setting [12]; 32.5% under setting [7]; 38.8% under setting [8]; 30.1% under setting [9]; 43.4% under setting [10].
Take `O=C(NCCS)C1(c2nccc3ccccc23)CC1`: the percent labeling was 50.1% under setting [11]; 18% under setting [1]; 39.6% under setting [2]; 28.9% under setting [3]; 40.1% under setting [4]; 46.2% under setting [5]. Besides, the percent labeling reads like this: under setting [6], 27.2%; under setting [12], 38.3%; under setting [7], 22.1%; under setting [8], 29.7%; under setting [9], 28.9%; under setting [10], 68.8%.
Consider `CCn1c2ccccc2c2cc(CN(C)C(=O)CCS)ccc21`, for which the percent labeling is, setting by setting: under setting [1], 16%; under setting [2], 25.8%; under setting [3], 19.8%; under setting [4], 11.8%; under setting [5], 18.4%; under setting [6], 42.1%. Besides, the percent labeling by setting is: under setting [7], 19.2%; under setting [8], 15%; under setting [9], 7.7%; under setting [10], 28%.
As for `O=C(NCCS)[C@@H]1CCCC[C@@H]1C(F)(F)F`, the percent labeling under setting [11] was determined as 49.1%; the percent labeling under setting [1] was 17.6%; the percent labeling under setting [2] was determined as 27.7%; the percent labeling under setting [3] amounted to 21.9%; the percent labeling under setting [4] is 28.9%; the percent labeling under setting [5] was 25.4%. Further, the percent labeling is 24.2% under setting [6]; 35.8% under setting [12]; 46.4% under setting [7]; 28.8% under setting [8]; 33.6% under setting [9]; 38.3% under setting [10].
`O=C(CCS)NC1CC12CCc1cc(Br)ccc12` (centres undefined) came in with a percent labeling under setting [1] of 13.9%; a percent labeling under setting [2] of 27.7%; a percent labeling under setting [3] of 23.2%; a percent labeling under setting [4] of 10.6%; a percent labeling under setting [5] of 15.2%; a percent labeling under setting [6] of 32%. Moreover, the percent labeling came to 17.1% under setting [7], 16.5% under setting [8], 7.4% under setting [9] and 31.7% under setting [10].
As for `CC(C)(C)Cn1c(=O)[nH]c2c(C(=O)NCCS)cccc21`, the percent labeling is, setting by setting: under setting [11], 22.2%; under setting [1], 14%; under setting [2], 15.6%; under setting [3], 12.1%; under setting [4], 15.6%; under setting [5], 13%. The percent labeling under setting [6] worked out at 28.4%; the percent labeling under setting [12] was 35.2%; the percent labeling under setting [7] is 11.3%; the percent labeling under setting [8] was found to be 14.1%; the percent labeling under setting [9] turned out to be 9.8%; the percent labeling under setting [10] was determined as 20.4%.
For `Cc1cnn(-c2cccc(C(=O)NCCS)c2)c1`, the percent labeling stood at 22.3% under setting [11]; 11.2% under setting [1]; 15.7% under setting [2]; 12.1% under setting [3]; 15.6% under setting [4]; 10.1% under setting [5]. This compound also came in with a percent labeling under setting [6] of 37.3%; a percent labeling under setting [12] of 36.8%; a percent labeling under setting [7] of 12.8%; a percent labeling under setting [8] of 12.5%; a percent labeling under setting [9] of 10.4%; a percent labeling under setting [10] of 25.8%.
As for `CCN(CC(=O)Nc1ccccc1C(F)(F)F)C(=O)CCS`, the percent labeling under setting [1] was 11.3%; the percent labeling under setting [2] came out at 30.7%; the percent labeling under setting [3] turned out to be 26.9%; the percent labeling under setting [4] amounted to 35.8%; the percent labeling under setting [5] stood at 33.5%; the percent labeling under setting [6] is 28.1%. This compound also returned a percent labeling under setting [7] of 23.8%, a percent labeling under setting [8] of 28.2%, a percent labeling under setting [9] of 31.3% and a percent labeling under setting [10] of 46.6%.
For the compound `O=C(CCS)NCC1CN(C2CC2)C(=O)O1` (centres undefined), the percent labeling was 8.4% under setting [1]; 29.9% under setting [2]; 39.3% under setting [3]; 23.3% under setting [4]; 39.1% under setting [5]; 15.4% under setting [6]. Moreover, the percent labeling under setting [7] turned out to be 14.8%, the percent labeling under setting [8] was 39.9%, the percent labeling under setting [9] turned out to be 38.9% and the percent labeling under setting [10] was found to be 50.2%.

These data come from PubChem BioAssay AID2202238 (Ras Initiative Chemistry Research Team, Frederick National …, 2025).
